Laboratory results taken from PubChem BioAssay AID463173 (ICCB-Longwood Screening Facility, Harvard Medical School, 2010).
About 4,300 (8.3%) of roughly 52,000 compounds were called active. No stated cut-off is given here; in the data, active means survival mostly below about 52% (no sharp cut-off); inactive means mostly above about 56%. This is one part of the list.

test system: DeltatarO mutant; assay: S. aureus survival, RN4220 and DeltatarO strains – OD600, teichoic acid synthesis inhibitors, primary screen (AID 463173); details: S. aureus RN4220 wild type/DeltatarO growth, OD600, 18 h, stronger effect = lower value, screened at 18.75 µg/mL (by protocol)

Q: With `CC1CCc2c(sc3nnn(Cc4ccccc4Cl)c(=O)c23)C1` (configuration not stated) as the compound, how does the survival read?
A: active: 13%

Q: How did the survival turn out when `CCCCN(CC)C(=O)c1ccc2c(c1)NC(=O)c1ccccc1S2` was run?
A: inactive: 104%

Q: `CCc1cccc(NC(=O)c2cc3c(=O)oc4ccc(C)cc4c3s2)c1` was tested. Which survival did it give?
A: inactive: 116%

Q: For `COc1ccc(CNC(=O)C(CC(C)C)NS(=O)(=O)c2ccc3c(c2)oc(=O)n3C)cc1` (configuration not stated), which survival is on record?
A: inactive: 80%

Q: Which survival does the source give for `CCCNS(=O)(=O)c1ccc(OCC(=O)NCc2ccco2)cc1` here?
A: inactive: 95%

Q: How did the survival turn out when `Cc1ccc(S(=O)(=O)c2cn(Cc3ccccc3)c3cc(N4CCCC4)c(F)cc3c2=O)c(C)c1` was run?
A: inactive: 94%

Q: `CSc1nnc(NC(=O)c2cc(=O)c3cc(C)c(C)cc3o2)s1` was tested. Which survival did it give?
A: inactive: 52%

Q: For `CCOc1c(CNCCSc2nnnn2C)cccc1OC`, which survival is on record?
A: inactive: 66%

Q: For `COc1cc(S(=O)(=O)Nc2ccccc2NC(=O)CN2CCOCC2)c(OC)cc1NC(C)=O`, which survival is on record?
A: inactive: 81%

Q: Which survival does the source give for `CC(C)(C)n1nnnc1C(c1cccc(C(F)(F)F)c1)N1CCC(O)CC1` (configuration not stated) here?
A: inactive: 92%

Q: Which survival does the source give for `Cc1cccc(C)c1NC(=O)C(=O)NCC(c1ccc2c(c1)OCO2)N1CCN(C)CC1` (configuration not stated) here?
A: inactive: 88%

Q: Which survival does the source give for `COc1ccc(C)cc1NC(=O)c1nnn(CC(=O)Nc2c(C)cccc2C)c1N` here?
A: inactive: 93%

Q: With `CC1=C(C(=O)N(C)C)C(c2ccccc2Cl)NC(=O)N1` (configuration not stated) as the compound, how does the survival read?
A: inactive: 76%

Q: `Cc1ccc(C)c(S(=O)(=O)c2nnn3c2nc(NC2CCCC2)c2sccc23)c1` was tested. Which survival did it give?
A: inactive: 66%

Q: With `O=C(c1ccc(Br)cc1)N(Cc1ccco1)c1ccccn1` as the compound, how does the survival read?
A: inactive: 58%

Q: `CN1C(=O)Cc2cc(S(=O)(=O)NCc3ccccc3Cl)ccc21` was tested. Which survival did it give?
A: inactive: 90%

Q: For `CCc1ccc(NC(=O)Cn2c(=O)n(-c3cccc(OC)c3)c(=O)c3c(C)c(C(=O)N(C)C)sc32)cc1`, which survival is on record?
A: inactive: 69%

Q: `CCCc1ccc(OCc2ccc(C(=O)Nc3ccccc3C(=O)OC)o2)cc1` was tested. Which survival did it give?
A: active: -2%

Q: With `CCc1ccc(CNC(=O)c2cccc(-n3c(C)nc4cccnc43)c2)cc1` as the compound, how does the survival read?
A: inactive: 91%

Q: How did the survival turn out when `Cc1ccc2oc(C(=O)N3CCC(c4nc5ccccc5s4)CC3)c(C)c2c1` was run?
A: inactive: 52%

Q: For `COc1ccc(N(CC(=O)N2CCCCC2)S(=O)(=O)c2ccc(OC)c(OC)c2)cc1`, which survival is on record?
A: inactive: 73%

Q: `CCc1cccc(NC(=O)C2CCCN2S(=O)(=O)c2ccc3nc(-c4ccccc4)[nH]c3c2)c1` (configuration not stated) was tested. Which survival did it give?
A: active: 35%

Q: `Cc1ccc(Cn2c(=O)n(Cc3ccc(C(=O)NC4CCN(Cc5ccccc5)CC4)cc3)c(=O)c3ccccc32)cc1` was tested. Which survival did it give?
A: inactive: 85%

Q: With `CCN(CC)CCN1C(=O)c2ccccc2NC1c1ccccc1F` (configuration not stated) as the compound, how does the survival read?
A: inactive: 106%

Q: With `CC(=O)c1ccc(NC(=O)CCn2cccn2)cc1` as the compound, how does the survival read?
A: inactive: 75%

Q: `N#Cc1ccc(OCc2nnc(SCC(=O)c3ccccc3)n2-c2ccccc2)cc1` was tested. Which survival did it give?
A: inactive: 87%

Q: For `COC(=O)c1cc(-c2ccc(C)cc2)no1`, which survival is on record?
A: inactive: 97%

Q: For `Cc1ccc(-n2c(C)cc(C=C3C(=O)NC(=O)NC3=O)c2C)cc1`, which survival is on record?
A: inactive: 86%

Q: How did the survival turn out when `CC(C)Cn1c(-c2ccccc2Cl)nc2ccccc21` was run?
A: active: -2%

Q: Which survival does the source give for `CC(=O)Nc1ccc(N2CCN(Cc3ccccc3)CC2)cc1` here?
A: inactive: 86%

Q: `O=C(NCCc1ccc(Cl)cc1)c1nnc(Cc2ccc(Cl)cc2Cl)o1` was tested. Which survival did it give?
A: inactive: 96%

Q: How did the survival turn out when `O=C(CSc1nnc(NC(=O)C2CC2)s1)Nc1ccccc1F` was run?
A: inactive: 105%

Q: With `CCOc1ccc(-c2c(C)nn3c(C)c(C(=O)NCCN(C)C)cnc23)cc1OCC` as the compound, how does the survival read?
A: inactive: 66%

Q: For `N/C(=N\OC(=O)Cc1ccccc1)c1ccncc1`, which survival is on record?
A: inactive: 89%

Q: For `CCC(C)NC(=O)c1cnn2c(C)cc(C)nc12` (configuration not stated), which survival is on record?
A: inactive: 86%

Q: Which survival does the source give for `COCCCNC(=O)CCCn1c(=O)c2ccccc2n(CC(=O)Nc2ccc(C)cc2Cl)c1=O` here?
A: inactive: 96%

Q: `Cn1c(=O)c2c(nc(N3CCOCC3)n2Cc2ccccc2Cl)n(C)c1=O` was tested. Which survival did it give?
A: active: 46%

Q: How did the survival turn out when `COc1ccc(-c2nnn(CC(=O)Nc3sc4c(c3C#N)CCCC4)n2)cc1` was run?
A: inactive: 98%

Q: For `COc1cc(Nc2nn(-c3ccc(OC(F)(F)F)cc3)nc2C(C)=O)cc(OC)c1`, which survival is on record?
A: inactive: 90%

Q: `Cc1nc(S(=O)(=O)N2CCN(c3cccc(Cl)c3)CC2)cn1C` was tested. Which survival did it give?
A: inactive: 106%

Q: Which survival does the source give for `COc1cc(OC)cc(-c2nnc(SCC(=O)c3ccc([N+](=O)[O-])cc3)o2)c1` here?
A: inactive: 73%

Q: Which survival does the source give for `O=C(CSc1nncn2c1cc1occc12)Nc1ccc(F)c(Cl)c1` here?
A: inactive: 65%

Q: How did the survival turn out when `COc1ccc(N(CC(=O)NCCc2ccc(C)cc2)S(=O)(=O)c2c(C)nn(C)c2C)cc1` was run?
A: inactive: 71%

Q: `CC(C)Cn1c(CN2CCN(c3cccc(Cl)c3)CC2)nc2c1c(=O)[nH]c(=O)n2C` was tested. Which survival did it give?
A: inactive: 122%

Q: How did the survival turn out when `Oc1ccc(Br)cc1C1CC(c2ccccc2)=NC(c2ccco2)N1` (configuration not stated) was run?
A: active: 1%

Q: How did the survival turn out when `CCOc1ccc(-c2cn3c(n2)sc2cc(C(=O)NCCCN4CCCCC4)ccc23)cc1` was run?
A: active: -1%

Q: How did the survival turn out when `CC1=C(C(=O)Nc2ccccc2)C(C(C)C)n2nc(SCc3ccccc3C)nc2N1` (configuration not stated) was run?
A: inactive: 75%

Q: Which survival does the source give for `CCC(=O)Nc1cc(-c2cn3cccnc3n2)ccc1OC` here?
A: inactive: 87%

Q: `Nc1nc(SCc2ccccc2)ns1` was tested. Which survival did it give?
A: inactive: 53%

Q: How did the survival turn out when `Cc1ccc(NCc2nnc(SCc3cc(C)ccc3C)o2)c(C)c1` was run?
A: inactive: 91%

Q: How did the survival turn out when `COc1cc(NC(=O)c2ccc(-c3nc(CSc4ccccc4)c(C)o3)cc2)cc(OC)c1` was run?
A: inactive: 115%

Q: Which survival does the source give for `CCOC(=O)c1cc(-c2ccc(OC)cc2)n(CCC(=O)Nc2cccc(C)c2C)c1C` here?
A: inactive: 93%

Q: With `CCCCc1nn2c(=O)cc(COC(=O)c3ccc4c(c3)OCO4)nc2s1` as the compound, how does the survival read?
A: inactive: 81%

Q: `COc1cc(OC)cc(-n2c(=O)c3ccccc3n(Cc3ccccc3C#N)c2=O)c1` was tested. Which survival did it give?
A: inactive: 128%

Q: With `CCOC(=O)c1ccc2c(c1)N(CC#N)C(=O)C(C)(C)O2` as the compound, how does the survival read?
A: inactive: 94%

Q: How did the survival turn out when `COc1ccccc1C(=O)NCC(c1ccc(N(C)C)cc1)N1CCc2ccccc21` (configuration not stated) was run?
A: active: 46%

Q: For `O=C(CCCn1c(=O)[nH]c2ccc(Br)cc2c1=O)N1CCN(c2cccc(Cl)c2)CC1`, which survival is on record?
A: active: 48%

Q: `Cc1cc(NC(=O)c2ccco2)cc(-c2nc3ccccc3o2)c1O` was tested. Which survival did it give?
A: inactive: 66%

Q: Which survival does the source give for `CCCNC(=O)Cn1nc(-c2ccc(C)cc2)c2cnc3ccc(CC)cc3c21` here?
A: active: 37%

Q: How did the survival turn out when `CCn1c(C)c(C)c2cc(C(=O)N3CCN(c4ccccc4)CC3)ccc21` was run?
A: inactive: 94%

Q: `Cc1ccc(S(=O)(=O)n2c(CN3CCCC(C)C3)nc3ccccc32)cc1` (configuration not stated) was tested. Which survival did it give?
A: inactive: 99%

Q: For `CCN(C(=O)CCS(=O)(=O)c1cc2c(cc1C)NC(=O)CO2)c1cccc(C)c1`, which survival is on record?
A: inactive: 84%

Q: With `CN(C)CCN(Cc1ccccc1)S(=O)(=O)c1csc(C(N)=O)c1` as the compound, how does the survival read?
A: inactive: 74%

Q: With `O=C(Cn1ncn2cccc2c1=O)NCc1cccc(Br)c1` as the compound, how does the survival read?
A: inactive: 98%

Q: Which survival does the source give for `CCOC(=O)C(C)(C)Sc1nnc(COc2ccccc2)n1CC` here?
A: inactive: 99%

Q: Which survival does the source give for `COc1ccc(N(CC(C)C)S(=O)(=O)c2nnc(NC(=O)c3ccco3)s2)cc1` here?
A: active: 41%

Q: `Cc1c(Cl)cccc1NC(=O)Cn1c(=O)cc(C)c2c(C)nn(-c3cccc(F)c3)c21` was tested. Which survival did it give?
A: inactive: 78%

Q: How did the survival turn out when `COc1ccc(NC(=O)c2cc(-c3ccc(F)cc3)no2)cc1OC` was run?
A: inactive: 71%

Q: How did the survival turn out when `CCCc1nc(SCC(=O)N(CC)CC)c2ccccc2n1` was run?
A: inactive: 76%

Q: Which survival does the source give for `COc1ccccc1Cc1nc2ccccc2nc1SCC(=O)Nc1c(C)cccc1C` here?
A: inactive: 87%

Q: `COC(=O)c1ccc(C(=O)OC)c(NC(C)=O)c1` was tested. Which survival did it give?
A: inactive: 73%

Q: For `COc1ccccc1NC(=O)CSC1=Nc2ccccc2C2=NC(CC(=O)NCc3ccc4c(c3)OCO4)C(=O)N12` (configuration not stated), which survival is on record?
A: inactive: 98%

Q: For `CCOC(=O)c1noc2ncnc(NCc3ccccc3OC)c12`, which survival is on record?
A: inactive: 83%

Q: Which survival does the source give for `COc1ccccc1N=C1SC(C(=O)Nc2ccccc2OC)CC(=O)N1C` (configuration not stated) here?
A: inactive: 51%

Q: How did the survival turn out when `O=C(NCCOCCn1c(=O)oc2ccccc21)Nc1cccc(Cl)c1` was run?
A: inactive: 75%

Q: With `COC(=O)c1ccccc1NC(=O)C1CCCN(c2ncnc3onc(C)c23)C1` (configuration not stated) as the compound, how does the survival read?
A: inactive: 80%

Q: `Cc1ccc(CNC(=O)c2sc3nc4n(c(=O)c3c2C)CCCCC4)cc1` was tested. Which survival did it give?
A: active: 53%

Q: With `Cc1cccc(NC(=O)c2ccc(CNS(=O)(=O)c3ccc4c(c3)C(C)(C)C(=O)N4C)cc2)c1` as the compound, how does the survival read?
A: inactive: 75%

Q: With `Cc1ccccc1C(=O)N(Cc1ccc(N(C)C)cc1)CC1CCCO1` (configuration not stated) as the compound, how does the survival read?
A: inactive: 58%

Q: How did the survival turn out when `Cc1ccc(-n2c(=O)c3c(c4cc(C)ccc4n3C)n(Cc3ccc(F)cc3)c2=O)cc1` was run?
A: inactive: 116%

Q: `CCOC(=O)C1=NN(C(=O)COc2ccccc2)C(O)(c2ccc(Br)cc2)C1` (configuration not stated) was tested. Which survival did it give?
A: inactive: 73%

Q: With `Cc1ccc(NC(=O)C(Cc2ccccc2)N2Cc3ccccc3C2=O)cc1Cl` (configuration not stated) as the compound, how does the survival read?
A: inactive: 77%

Q: `CNC(=O)c1c(-c2ccccc2)oc2ccc(OC)cc12` was tested. Which survival did it give?
A: inactive: 90%

Q: With `CC(C)c1ccc(NC(=O)c2ccc3c(O)c(S(=O)(=O)c4ccccc4)c(=O)[nH]c3c2)cc1` as the compound, how does the survival read?
A: inactive: 72%

Q: For `COc1cc(OC)c(N(C)C(=O)c2cc3c(=O)oc4ccccc4c3s2)cc1Cl`, which survival is on record?
A: inactive: 59%

Q: How did the survival turn out when `O=c1c2ccccc2n2c(-c3ccccc3F)nnc2n1CCc1ccccc1` was run?
A: inactive: 84%

Q: Which survival does the source give for `Cc1ccc(C(=O)N(c2ccc(C)cc2)S(=O)(=O)c2ccc(Cl)cc2)cc1` here?
A: inactive: 78%

Q: For `Cc1ccc(-n2nc(C(=O)N(C)Cc3ccccc3)c3c4ccccc4n(C)c3c2=O)cc1`, which survival is on record?
A: inactive: 108%

Q: How did the survival turn out when `NC(=O)C1CCN(C(=O)COc2ccc(Cl)cc2Cl)CC1` was run?
A: inactive: 80%

Q: With `O=C(CC1N=C2c3ccccc3N=C(SCc3cccc(Cl)c3)N2C1=O)NCCc1ccccc1` (configuration not stated) as the compound, how does the survival read?
A: inactive: 104%

Q: How did the survival turn out when `CCC1=C(c2ccc(C)cc2)S(=O)(=O)N=C1N1CCC(C(=O)NCCc2ccc(Cl)cc2)CC1` was run?
A: inactive: 86%

Q: For `Cc1ccc(S(=O)(=O)C(CNC(=O)C(=O)NCCc2ccc(Cl)cc2)c2cccs2)cc1` (configuration not stated), which survival is on record?
A: inactive: 81%
